Data from US10858425B2, “Pan-ELR+ CXC chemokine antibodies” (Eli Lilly and Company, priority 2013, dated 2020).

Experiments:
human CXCL8 (IL-8) = target: T1, human CXCL8 (IL-8) (Homo sapiens, UniProt P10145); test: Biacore surface plasmon resonance binding to human CXCL8; details: 25° C.
T1 sequence (P10145 28-99 limits assumed): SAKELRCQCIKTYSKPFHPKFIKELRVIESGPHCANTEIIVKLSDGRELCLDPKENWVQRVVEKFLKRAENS
Method: Biacore 2000 instrument and Biacore 2000 Evaluation Software Version 4.1 are used for surface plasmon resonance analysis. A […] chip is prepared using manufacturer's EDC/NHS amine coupling method. Briefly, the surfaces of all four flow cells are activated by injecting a 1:1 mixture of EDC/NHS for 7 minutes at 10 μL/min. Protein A is diluted to 100 μg/mL in 10 mM acetate, pH 4.5 buffer, and immobilized to achieve approximately 10,000 RU onto all 4 flow cells by 7-minute injection at a flow rate of 10 μL/minute. Unreacted sites are blocked with a 7-minute injection of ethanolamine at 10 μL/minute. Two injections of glycine (pH 1.5) for 30 seconds at 10 μL/minute are used to remove any non-covalently associated protein. Running buffer is HBS-EP+.
Antibody 1 or Antibody 2 is diluted to 2 μg/mL in running buffer, and approximately 400-600 RU is captured in flow cell (Fc). Ligands are diluted from 100 μg/mL to 50 nM in running buffer and then two-fold serially diluted in running buffer to 3.125 nM. Duplicate injections of each ligand concentration are injected at 100 μL/min for 150 seconds followed by a dissociation phase. […] The on-rate (kon) and off-rate (koff) for each ligand are evaluated using a “1:1 (mass transfer) Binding” binding model. The affinity […] is calculated from the binding kinetics according to the relationship: KD=koff/kon.

[1] = target: T2, human CXCL8 point mutant R6A (Homo sapiens, UniProt P10145, R33A); test: Biacore binding kinetics, human CXCL8 R6A; details: 25° C.
T2 construct: His-SUMO (N, cleaved yes); made in house; host or cells: E. coli
T2 sequence (P10145 28-99 R33A): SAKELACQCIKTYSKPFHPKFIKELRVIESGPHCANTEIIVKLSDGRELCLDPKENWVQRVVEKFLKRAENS
Source text: Several key contacts between the Antibody 1 Fab and wild type human CXCL8 are observed in the crystal structure and are further tested through binding kinetic studies and U937-huCXCR2 fluorescent imaging plate reader (FLIPR) neutralization of human CXCL8 point mutants. To study these key contacts, several point mutants (R6A, I10A, A35P, I40A, and L49A) are made based on the human CXCL8 sequence (SEQ ID NO: 27). Wild type, R6A, I10A, A35P, I40A, and L49A human CXCL8 point mutants are expressed, refolded, and purified according to standard techniques. Formation of disulfide bonds is confirmed by tryptic digest and mass fingerprint analysis, and activity is confirmed by neutrophil chemotaxis assay.
Binding kinetics are tested on a Biacore 2000 instrument with Biacore 2000 Evaluation Software Version 4.1 as described above.
The on-rate (kon) and off-rate (koff) for each ligand are evaluated using a “1:1 (mass transfer) Binding” binding model. The affinity (KD) is calculated from the binding kinetics according to the relationship: KD=koff/kon.

human CXCL5 = target: T3, human CXCL5 (Homo sapiens, UniProt P42830); test: FLIPR neutralization using HMEC cells expressing human CXCR2, CXCL5; format: cell-based; details: CXCL5 10 nM; HMEC-huCXCR2 FLIPR
T3 sequence (P42830 41-114 limits assumed): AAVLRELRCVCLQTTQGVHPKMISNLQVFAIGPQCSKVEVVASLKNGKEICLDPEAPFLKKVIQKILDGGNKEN
Source text: Since all of the ELR+ CXC chemokines can bind CXCR2 receptor, cells expressing CXCR2 were selected for in vitro studies. HMEC-huCXCR2 is an immortalized human endothelial cell line transduced with retrovirus for expression of human CXCR2 receptor. HMEC cells expressing human CXCR2 are able to induce intracellular Ca^2+ influx in response to human, cynomolgus monkey, rat, and mouse ELR+CXC chemokines. Intracellular Ca^2+ influx can be detected by a Fluorescent Imagine £late Reader (FLIPR). Chemokine neutralization should therefore also neutralize intracellular Ca^2+ influx induced by these chemokines.
HMEC-huCXCR2 is maintained in MCDB 31 medium supplemented with 10% fetal bovine serum, 2× GlutaMax, 1× non-essential amino acids, 1 μg/mL hydrocortisone, 10 ng/mL human Epidermal Growth Factor, and 0.4 μg/mL puromycin at 37° C. in 5% CO2. […] A cell plate and a ligand-antibody plate are loaded into a Fluorescent Imagine Plate Reader (FLIPR-3, Molecular Devices) programmed to transfer 50 μL of ligand-antibody to wells of the cell plate. Fluorescence is recorded every second for 90 seconds. The change in fluorescence (DRFU) is calculated from images 10 to 90. DRFU versus log (antibody concentration) is plotted and IC50 values are determined by nonlinear regression using Graph Pad Prism. […] Data are expressed as the mean of replicates. […]

mouse CXCL5 (LIX) = target: T4, mouse CXCL5 (LIX) (Mus musculus, UniProt P50228); test: Neutralization of mouse CXCL5 (LIX)
T4 sequence (P50228 41-132): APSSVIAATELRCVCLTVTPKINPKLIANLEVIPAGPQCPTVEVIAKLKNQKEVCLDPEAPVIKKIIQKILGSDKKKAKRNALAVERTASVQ

- kon (human CXCL8 (IL-8)): 3.39 ± 0.03 (1/Ms) × 10^5
- KD (binding kinetics) [1]: No Binding
- IC50 (human CXCL5): 0.681 (±0.347) ug/mL
- neutralization of mouse CXCL5 (LIX) (mouse CXCL5 (LIX)): does not neutralize
B1: Antibody 1: antibody with heavy chain SEQ ID NO: 1 and light chain SEQ ID NO: 3, expressed in NSO cells (antibody)
heavy: QVQLVQSGAEVKKPGASVKVSCKASGYEFTSYWIHWVRQAPGQGLEWMGNISPNSGSANYNEKFKSRVTMTRDTSTSTVYMELSSLRSEDTAVYYCAREGPYSYYPSREYYGSDLWGQGTLVTVSSASTKGPSVFPLAPCSRSTSESTAALGCLVKDYFPEPVTVSWNSGALTSGVHTFPAVLQSSGLYSLSSVVTVPSSSLGTKTYTCNVDHKPSNTKVDKRV[human IgG4 Fc with S228P (EU numbers) not spelt out]
light: EIVLTQSPATLSLSPGERATLSCRASQSISNNLHWYQQKPGQAPRLLIYYTSRSVSGIPARFSGSGSGTDFTLTISSLEPEDFAVYYCGQNNEWPEVFGGGTKVEIKRTVAAPSVFIFPPSDEQLKSGTASVVCLLNNFYPREAKVQWKVDNALQSGNSQESVTEQDSKDSTYSLSSTLTLSKADYEKHKVYACEVTHQGLSSPVTKSFNRGEC
